Results as given in PubChem BioAssay AID1768 (National Center for Advancing Translational Sciences (NCATS), 2009).
Screen size: about 270,000 compounds; about 620 (0.23%) were called active. This list was built around the results that the source calls inconclusive (neither active nor inactive); the mix of calls is not that of the screen. Calls come from the whole dose curve; as a rule, active = well fitted inhibition curve with a large enough effect in the polarisation, with a control signal flat (not every such curve was filed as active); inconclusive = small, poorly fitted or top-dose-only effect, or effect the other way, or a change in a side signal; inactive = no such curve, though single readings can be large or run the other way; the % refers to the polarisation. Potencies of inconclusive entries are doubtful fits and often do not repeat. A note “side channel” means that the fit belongs to a control or component signal, not to the main read-out.

What follows are compounds tested against Menin (Homo sapiens) (UniProt O00255) (assay: qHTS Assay for Inhibitors Targeting the Menin-MLL Interaction in MLL Related Leukemias: Competition With Texas Red Labeled MLL-derived Mutant Peptide). Settings: fluorescence polarization; FP activity change, negative = inhibition: at 61.6 µM (top of the series).
Sequence of UniProt O00255 (O00255 whole entry, looked up): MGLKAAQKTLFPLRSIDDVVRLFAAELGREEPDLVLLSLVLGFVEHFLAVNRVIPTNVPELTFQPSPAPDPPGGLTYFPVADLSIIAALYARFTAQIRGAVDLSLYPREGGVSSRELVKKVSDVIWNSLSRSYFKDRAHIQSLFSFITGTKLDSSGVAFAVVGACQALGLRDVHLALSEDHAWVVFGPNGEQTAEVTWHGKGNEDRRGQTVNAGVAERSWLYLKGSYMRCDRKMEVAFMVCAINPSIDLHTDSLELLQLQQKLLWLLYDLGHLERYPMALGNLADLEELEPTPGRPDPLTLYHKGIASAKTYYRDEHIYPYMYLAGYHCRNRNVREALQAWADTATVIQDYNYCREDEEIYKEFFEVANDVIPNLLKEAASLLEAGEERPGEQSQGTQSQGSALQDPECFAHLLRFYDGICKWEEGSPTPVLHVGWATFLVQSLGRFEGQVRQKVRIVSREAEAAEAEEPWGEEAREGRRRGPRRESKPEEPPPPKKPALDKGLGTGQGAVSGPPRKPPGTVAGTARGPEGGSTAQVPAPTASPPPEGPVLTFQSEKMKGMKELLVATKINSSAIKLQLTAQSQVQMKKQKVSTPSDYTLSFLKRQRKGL
Potency is the fitted concentration of half-maximal effect; tags give direction and shape of the fitted curve or compound fluorescence and quenching.
Throughout, for FP activity change, negative = inhibition: % of control where 0% means no effect.

Potency, active:
COCCNc1ncnc2ccc(-c3cccnc3)cc12 31.6 µM

Potency, inconclusive:
Cc1onc(-c2ccccc2Cl)c1C(=O)Nc1nnc(-c2cccc([N+](=O)[O-])c2)s1 8.91 µM [quencher, side channel, partial curve], CCS(=O)(=O)Nc1cccc(C2=NN(S(=O)(=O)c3ccccc3)C(c3cccs3)C2)c1 (configuration not stated) 39.8 µM [inhibitor, single point], CCC(CC)c1nnc(NC(=O)Oc2ccccc2)s1 3.16 µM [inhibitor, partial curve], CCCCN(CCCC)c1nc2ccccc2nc1NS(=O)(=O)c1ccc(NC(C)=O)cc1 12.6 µM [quencher, side channel, partial curve], O=C(Nc1cc(C(F)(F)F)ccc1N1CCCC1)c1ccc2c(c1)OCO2 7.94 µM [inhibitor, full curve, poor fit], CC1CCN(S(=O)(=O)c2nnc(NC(=O)c3cccc(Cl)c3)s2)CC1 7.08 µM [quencher, side channel, full curve, poor fit], O=C(O)c1ccccc1C(=O)Nc1ccc(Oc2ccc3ccccc3c2)cc1 11.2 µM [quencher, side channel, partial curve], COc1cc(-c2nc(Cc3c(F)cccc3Cl)no2)cc(OC)c1OC 25.1 µM [quencher, side channel, partial curve], CCOc1ccc(C2c3cc(OC)c(OC)cc3CC(=O)N2c2ccccc2)cc1 (configuration not stated) 7.08 µM [fluorescent, side channel, partial curve], CCc1ccc(NC(=S)N(CCC(C)C)C2CCN(C(C)=O)CC2)cc1 31.6 µM [inhibitor, partial curve], COc1cccc(OCCOc2ccc(/C=C3/SC(=S)NC3=O)cc2)c1 7.08 µM [quencher, side channel, partial curve], Brc1ccc(-c2csc(-c3c[nH]c4ccccc34)n2)cc1 10 µM [quencher, side channel, partial curve], Cc1nnc(C)c2c(C)n(-c3ccc(Cl)c(N)c3)c(C)c12 20 µM [inhibitor, partial curve], COc1ccccc1/C=c1\sc2nc(-c3ccccc3OC)nn2c1=O 12.6 µM [quencher, side channel, partial curve], CCn1c2ccccc2c2cc(NC(=O)C(=O)NCC3CCCO3)ccc21 (configuration not stated) 12.6 µM [quencher, side channel, partial curve], On1c2c(c3c4nonc4ccc31)CCCC2 17.8 µM [quencher, side channel, single point], Nc1[nH]nc2c1NN(c1ccc(Cl)cc1Cl)N2 22.4 µM [quencher, side channel, single point], O=C(N/N=C/c1cc([N+](=O)[O-])ccc1O)Nc1ccccc1 14.1 µM [quencher, side channel, partial curve], c1ccc(CSc2ccc3nnc(-c4ccccn4)n3n2)cc1 35.5 µM [inhibitor, single point], Nc1ccc(-c2ncc(-c3ccccc3)o2)cc1 17.8 µM [quencher, side channel, partial curve], NNc1nc2c(F)cc(F)cc2s1 25.1 µM [quencher, side channel, single point], C=CCc1c(C)nc(-c2ccccc2)nc1Nc1ccc(O)cc1 28.2 µM [quencher, side channel, single point], CCN(Cc1cccc(OC)c1)CC1CCCN(CCc2cccc(OC)c2)C1 (configuration not stated) 3.55 µM [fluorescent, side channel, full curve], O=C(OCN1C(=O)c2ccccc2C1=O)c1ccco1 4.47 µM [quencher, side channel, single point], NC(=O)c1ccc(NC(=O)COC(=O)c2c3c(nc4ccccc24)/C(=C\c2ccc4c(c2)OCO4)CCC3)cc1 39.8 µM [quencher, side channel, single point], O=C(COC(=O)c1ccccc1NC(=O)c1ccco1)Nc1ccc2c(c1)OCO2 12.6 µM [quencher, side channel, partial curve], O=[N+]([O-])c1nn(-c2ccc3c(c2)OCCO3)n(O)c1=Nc1ccccc1 25.1 µM [quencher, side channel, partial curve], O=C(CCN1C(=O)/C(=C\c2ccccc2F)SC1=S)Nc1ccc(C(=O)O)c(O)c1 12.6 µM [quencher, side channel, partial curve], CCN(CC)CCCNC(=O)c1nn(-c2ccccc2OC)c(=O)c2ccccc12 31.6 µM [inhibitor, single point], Cc1[nH]c2ccccc2c1/C=N/Nc1ccc([N+](=O)[O-])cc1S(=O)(=O)Nc1ccc(Cl)cc1 2.51 µM [quencher, side channel, full curve], O=C(CSc1nnc(-c2c[nH]c3ccccc23)o1)c1ccccc1 28.2 µM [inhibitor, single point]

FP activity change, negative = inhibition, inactive:
CC(=O)Nc1ccc(-c2ccccc2)s1 19.4%, Cc1nn(CC(=O)OCCOc2ccc(Br)cc2)c(C)c1[N+](=O)[O-] 2.89%, CCOC(=O)c1nnn(-c2nonc2-n2cccc2)c1-c1cccc([N+](=O)[O-])c1 -11.8%, CO[C@@H]1COC(=O)CC=C[C@@H](C)[C@@H]2C=C[C@H](O)[C@@H](COC(=O)[C@H](C)NC(=O)CC=C[C@H]1C)O2 -16.7% [at 11.7 µM], CC(C)(C)C1C=C(Sc2ccccc2)C(=O)O1 (configuration not stated) -5.04%
